{
  "source": "PubChem BioAssay AID743255",
  "about": "(National Center for Advancing Translational Sciences (NCATS), 2014)",
  "note": "Hit rate of the full screen: of about 390,000 compounds, about 910 (0.23%) were called active. About 5% were inconclusive and are not listed. Calls follow the shape of the dose curve; as a rule, active = well fitted inhibition curve with a large enough effect; inconclusive = small, poorly fitted or top-dose-only effect; inactive = no such curve, though single readings can be large or run the other way. The list shows a part of the results, in another mix than the full data. % is scaled to controls: 0 for no effect and ±100 for the full control effect; potency is read from the fitted curve at half-maximal effect.",
  "data": [
    {"molecular_target": "Ubiquitin carboxyl-terminal hydrolase 1 (Homo sapiens) (UniProt O94782)", "sequence (O94782 whole entry, looked up)": "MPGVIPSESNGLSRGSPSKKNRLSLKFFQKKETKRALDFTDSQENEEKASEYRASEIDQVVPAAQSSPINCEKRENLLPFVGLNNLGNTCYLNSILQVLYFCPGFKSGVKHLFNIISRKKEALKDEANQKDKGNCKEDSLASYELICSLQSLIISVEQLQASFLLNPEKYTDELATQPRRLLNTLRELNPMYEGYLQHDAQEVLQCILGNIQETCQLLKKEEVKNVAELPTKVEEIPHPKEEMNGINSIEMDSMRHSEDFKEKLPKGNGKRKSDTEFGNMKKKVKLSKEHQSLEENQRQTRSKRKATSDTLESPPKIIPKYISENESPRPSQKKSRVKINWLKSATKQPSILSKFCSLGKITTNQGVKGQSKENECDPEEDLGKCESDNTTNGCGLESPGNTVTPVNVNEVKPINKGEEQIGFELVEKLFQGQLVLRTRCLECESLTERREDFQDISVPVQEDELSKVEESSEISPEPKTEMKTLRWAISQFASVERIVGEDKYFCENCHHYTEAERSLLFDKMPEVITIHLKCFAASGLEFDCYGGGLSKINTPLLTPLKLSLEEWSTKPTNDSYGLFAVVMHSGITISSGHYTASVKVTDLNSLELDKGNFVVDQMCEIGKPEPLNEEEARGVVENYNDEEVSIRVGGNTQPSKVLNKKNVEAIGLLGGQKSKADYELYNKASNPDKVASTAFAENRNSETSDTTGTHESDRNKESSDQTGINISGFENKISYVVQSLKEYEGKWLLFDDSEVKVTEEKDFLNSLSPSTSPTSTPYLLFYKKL", "test": "Inhibitors of USP1/UAF1: Primary Screen; also: nearly all actives have a fitted effect of over 60% in size", "settings": "recombinant USP1/UAF1, Ub-Rhodamine cleavage fluorescence; series mostly up to 57.1 µM; activity change, negative = inhibition: at the top concentration", "description": "Deubiquitinating enzymes (DUBs) are a class of enzymes that can cleave isopeptide bond formed between the C-terminal carboxylate of ubiquitin and a lysine side-chain amino group on the target protein. Among them, ubiquitin specific proteases (USPs) constitute the largest DUB family. Human USPs are emerging as promising targets for pharmacological intervention because of their connection to a number of human diseases, including prostate, colon and breast cancer (1, 2), pediatric acute lymphoblastic leukemia (3), and familial cylindromatosis (4). The advantage of inhibiting USPs lies in the potential specificity of therapeutic intervention that can lead to better efficacy and reduce nonspecific side effects. In a collaboration between the University of Delaware and the NIH Chemical Genomics Center, a high-throughput screen assay was developed to screen for USP1/UAF1 inhibitors. This miniaturized assay has a fluorescent read-out and is used to screen the NIH Molecular Libraries Small Molecule Repository (MLSMR) in order to identify a small molecule that inhibits USP1. NIH Chemical Genomics Center [NCGC] NIH Molecular Libraries Probe Centers Network [MLPCN] MLPCN Grant: DA030552 Assay Submitter (PI): Zhihao Zhuang, University of Delaware 1. Priolo, C., et al. (2006) The isopeptidase USP2a protects human prostate cancer from apoptosis. Cancer Res 66, 8625-8632 2. Popov, N., et al. (2007) The ubiquitin-specific protease USP28 is required for MYC stability. Nat Cell Biol 9, 765-774 3. De Pitta, C., et al. (2005) A leukemia-enriched cDNA microarray platform identifies new transcripts with relevance to the biology of pediatric acute lymphoblastic leukemia. Haematologica 90, 890-898 4. Kovalenko, A., et al. (2003) The tumour suppressor CYLD negatively regulates NF-kappaB signalling by deubiquitination. Nature 424, 801-805\n3 microliters of reagents (buffer in columns 3 and 4 as negative control and 1nM USP1/UAF1 complex in columns 1, 2, and 5-48) are dispensed into Greiner black solid bottom 1536-well assay plates. Compounds are then transferred via Kalypsys pin tool equipped with 1536-pin array (10nl slotted pins, V&P Scientific, San Diego, CA). Following an incubation step of 15 min at room temperature, 1ul of Ub-Rho substrate (150nM final concentration) is added to initiate the reaction. The plates are immediately centrifuged at 1000 rpm for 15 seconds, and subsequently transferred to a ViewLux high-throughput CCD imager (PerkinElmer) wherein kinetic measurements of fluorescence are acquired using 480 nm excitation/540 nm emission filter set (6 reads every 60 seconds, see Table 1). All reagents are diluted in an assay buffer consisting of 50mM HEPES (pH 7.8), 0.5mM EDTA, 0.1 mg/ml BSA, 1mM TCEP, and 0.01% Tween-20.", "values": [
      {"smiles": "Cc1ccc(N=Nc2c(O)[nH]c(=O)[nH]c2=O)cc1S(=O)(=O)Nc1ccc(Br)cc1", "activity change, negative = inhibition": "inactive: 41.9%"},
      {"smiles": "COc1cccc(N2C(=O)NC(=O)/C(=C\\c3cn(C)c4ccccc34)C2=O)c1", "Potency": "active: 11.2 µM"},
      {"smiles": "O=c1[nH]c(=S)n(-c2ccc(Br)cc2)c(O)c1C=Nc1ccc(N2CCOCC2)cc1", "Potency": "active: 31.6 µM"},
      {"smiles": "C[C@]12CC[C@@H](O)C[C@H]1CC[C@@H]1[C@@H]2CC[C@]2(C)C(=O)CC[C@@H]12", "activity change, negative = inhibition": "inactive: 6.66%"},
      {"smiles": "C#CCN1C(=O)S/C(=C\\c2ccc(N3CCOCC3)cc2C)C1=O", "activity change, negative = inhibition": "inactive: 148%"},
      {"smiles": "Cn1ccnc1P(=S)(c1nccn1C)c1nccn1C", "activity change, negative = inhibition": "inactive: -2.1%"},
      {"smiles": "O=c1cc(C(F)(F)F)c2cc3c4c(c2o1)CCCN4CCC3", "activity change, negative = inhibition": "inactive: 375%"},
      {"smiles": "COc1cc(C2c3cc4c(cc3C(O)C3COC(=O)C23)OCO4)cc(OC)c1OC", "note": "(centres undefined)", "activity change, negative = inhibition": "inactive: -15.3%"},
      {"smiles": "C[C@]12CCC(=O)C=C1CC[C@@H]1C2[C@H](O)C[C@]2(C)C(=O)CCC12", "note": "(some centres undefined)", "activity change, negative = inhibition": "inactive: -19.1%"},
      {"smiles": "COc1ccccc1N1CCN(S(=O)(=O)c2ccc3c(c2)oc(=O)n3C)CC1", "activity change, negative = inhibition": "inactive: -18.6%"},
      {"smiles": "CCn1nc(-c2cccs2)nc2c(=O)n(C)c(=O)nc1-2", "Potency": "active: 0.224 µM"},
      {"smiles": "CCOC(=O)C1CCCN(c2ccc([N+](=O)[O-])c3nonc23)C1", "note": "(centres undefined)", "Potency": "active: 25.1 µM"},
      {"smiles": "CN1C2CC(OC(=O)C(CO)c3ccccc3)CC1C1OC12", "note": "(centres undefined)", "Potency": "inactive"},
      {"smiles": "COc1ccc2cc1Oc1ccc(cc1)C[C@H]1c3cc(c(OC)cc3CCN1C)Oc1c(OC)c(OC)cc3c1[C@H](C2)N(C)CC3", "activity change, negative = inhibition": "inactive: -21.9%"},
      {"smiles": "C[C@@H]1CN([C@@H](C)CO)C(=O)CCCn2nncc2CO[C@@H]1CN(C)C(=O)Oc1cccc2ccccc12", "activity change, negative = inhibition": "inactive: -18.3%"},
      {"smiles": "C[C@H]1CN([C@@H](C)CO)C(=O)c2cccc(NC(=O)c3ccc(-c4nccs4)cc3)c2O[C@@H]1CN(C)C(=O)Nc1cccc2ccccc12", "activity change, negative = inhibition": "inactive: -23.5%"},
      {"smiles": "CCCCCCCCCCCCCCCC[n+]1ccccc1", "activity change, negative = inhibition": "inactive: -12.9%"},
      {"smiles": "COc1ccc2c(c1OC)C(=O)O[C@H]2[C@@H]1c2cc3c(cc2CCN1C)OCO3", "activity change, negative = inhibition": "inactive: 17.6%"},
      {"smiles": "C[C@]12CCC3C(CC[C@@H]4C[C@H](O)CC[C@]34C)C1CCC2=O", "note": "(some centres undefined)", "activity change, negative = inhibition": "inactive: -7.67%"},
      {"smiles": "CCN(CC)c1ccc(N=Cc2c(O)n(CCC3=CCCCC3)c(=O)[nH]c2=O)cc1", "activity change, negative = inhibition": "inactive: 193%"},
      {"smiles": "CN(C)[C@@H]1C(=O)C(C(N)=O)=C(O)[C@@]2(O)C(=O)C3=C(O)c4c(O)cccc4[C@@](C)(O)C3[C@H](O)C12", "note": "(some centres undefined)", "activity change, negative = inhibition": "inactive: -20.5%"},
      {"smiles": "CCCC[N+]1(C)C2CC(OC(=O)C(CO)c3ccccc3)CC1C1OC12", "note": "(centres undefined)", "activity change, negative = inhibition": "inactive: -24.5%"},
      {"smiles": "C[C@@H]1CCC2[C@@H](C)C(=O)O[C@@H]3OC4(C)CCC1[C@@]23OO4", "note": "(some centres undefined)", "activity change, negative = inhibition": "inactive: 28.6%"},
      {"smiles": "COc1ccc(OC(=O)N(C)C[C@H]2OCc3cnnn3CCCC(=O)N([C@H](C)CO)C[C@H]2C)cc1", "activity change, negative = inhibition": "inactive: -3.43%"}
    ]}
  ]
}
